# In the supplement of paper PMC7826260:
# The other results are listed elsewhere or left out. The data describe in vitro nicking of single-stranded DNA by Rep domains at 3 µM enzyme and 37 °C for 1 h; the strands have 90 letters, of which the middle is given. Numbers give uncut DNA relative to the enzyme-free pool, as log2; strong cutting gives strongly negative numbers. There is no active / inactive call. Shares of all reads are compared, so uncut sequences can rise above 0 when many others are cut.
# Legend:
# Test in all cases: uncleaved DNA left, log2 of reads against the no-enzyme library (log2 ratio); higher = less cleavage (more negative = more Rep cleavage of the k-mer); sequences stand for … in CTCGTCCG…ACCGGAGA
# [1] = tested on: T1, Rep nickase domain of Muscovy duck circovirus
# T1 sequence (protein, residues 1-111, tag omitted): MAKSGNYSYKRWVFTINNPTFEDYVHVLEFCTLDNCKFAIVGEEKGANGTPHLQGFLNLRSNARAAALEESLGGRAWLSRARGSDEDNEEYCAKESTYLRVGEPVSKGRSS
# Description: (§1)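 A pool of 90-nt single-stranded DNAs with seven random bases just before the constant AC of the nick site (name = the seven bases) was cut by 3 µM recombinant His6-SUMO-tagged Rep nickase domain (300 nM DNA, 50 mM HEPES pH 8.0, 50 mM NaCl, 1 mM MnCl2, 1 h, 37 °C, three replicates). Uncut DNA was amplified and sequenced.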
# [2] = tested on: T2, Rep nickase domain of banana bunchy top virus
# T2 sequence (protein, residues 1-94, tag omitted): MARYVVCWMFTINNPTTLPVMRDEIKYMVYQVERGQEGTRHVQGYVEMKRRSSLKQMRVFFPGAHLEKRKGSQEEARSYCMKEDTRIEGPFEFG
# Description: as §1
# [3] = tested on: T3, Rep nickase domain of cabbage leaf curl virus
# T3 sequence (protein, residues 1-116, tag omitted): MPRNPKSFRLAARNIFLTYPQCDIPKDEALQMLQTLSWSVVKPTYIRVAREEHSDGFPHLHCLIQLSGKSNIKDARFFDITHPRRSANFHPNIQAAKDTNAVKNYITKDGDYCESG
# Description: as §1
# [4] = tested on: T4, Rep nickase domain of chickpea chlorotic dwarf virus
# T4 sequence (protein, residues 1-124, tag omitted): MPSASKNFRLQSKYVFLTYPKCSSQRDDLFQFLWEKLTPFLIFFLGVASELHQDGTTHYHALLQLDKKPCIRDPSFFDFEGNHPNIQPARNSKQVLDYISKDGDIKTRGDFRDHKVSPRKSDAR
# Description: as §1
# [5] = tested on: T5, Rep nickase domain of faba bean necrotic yellows virus
# T5 sequence (protein, residues 1-98, tag omitted): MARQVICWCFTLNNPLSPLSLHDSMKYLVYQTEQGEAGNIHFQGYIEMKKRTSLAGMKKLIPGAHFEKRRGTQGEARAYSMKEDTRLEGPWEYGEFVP
# Description: as §1
# [6] = tested on: T6, Rep nickase domain of maize striate mosaic virus
# T6 sequence (protein, residues 1-117, tag omitted): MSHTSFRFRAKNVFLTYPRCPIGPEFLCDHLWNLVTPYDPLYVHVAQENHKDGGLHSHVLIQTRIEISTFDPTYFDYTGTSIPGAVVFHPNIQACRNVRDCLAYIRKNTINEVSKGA
# Description: as §1
# [7] = tested on: T7, Rep nickase domain of porcine circovirus 2
# T7 sequence (protein, residues 2-116, tag omitted): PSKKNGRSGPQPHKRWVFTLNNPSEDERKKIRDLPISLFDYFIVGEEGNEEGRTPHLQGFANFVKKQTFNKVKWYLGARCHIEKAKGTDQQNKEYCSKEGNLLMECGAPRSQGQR
# Description: as §1
# [8] = tested on: T8, Rep nickase domain of tomato golden mosaic virus
# T8 sequence (protein, residues 1-124, tag omitted): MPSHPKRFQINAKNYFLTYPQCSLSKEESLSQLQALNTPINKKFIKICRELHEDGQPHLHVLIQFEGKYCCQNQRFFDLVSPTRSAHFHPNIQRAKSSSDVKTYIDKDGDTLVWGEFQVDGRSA
# Description: as §1
# [9] = tested on: T9, Rep nickase domain of tomato yellow leaf curl virus
# T9 sequence (protein, residues 1-136, tag omitted): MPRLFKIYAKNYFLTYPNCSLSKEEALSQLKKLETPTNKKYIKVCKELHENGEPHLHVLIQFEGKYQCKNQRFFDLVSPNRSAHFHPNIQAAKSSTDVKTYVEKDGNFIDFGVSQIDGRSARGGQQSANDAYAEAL
# Description: as §1
# [10] = tested on: T10, Rep nickase domain of wheat dwarf virus
# T10 sequence (protein, residues 1-137, tag omitted): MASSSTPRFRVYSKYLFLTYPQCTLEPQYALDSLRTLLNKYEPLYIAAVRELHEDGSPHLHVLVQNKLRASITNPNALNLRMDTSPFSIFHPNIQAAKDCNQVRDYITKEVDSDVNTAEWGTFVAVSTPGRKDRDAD
# Description: as §1
Sequence,uncleaved DNA left (log2) [1],uncleaved DNA left (log2) [2],uncleaved DNA left (log2) [3],uncleaved DNA left (log2) [4],uncleaved DNA left (log2) [5],uncleaved DNA left (log2) [6],uncleaved DNA left (log2) [7],uncleaved DNA left (log2) [8],uncleaved DNA left (log2) [9],uncleaved DNA left (log2) [10]
GGCGGAG,0.0863,0.109,0.3,0.775,0.0259,1.21,0.155,0.146,0.112,0.0762
TAAACGA,0.0181,0.00733,-0.257,-1.32,0.0399,-1.04,0.153,-0.087,-0.0064,-0.146
CATCGCT,0.119,0.0442,-0.354,-1.58,0.0683,-1.01,-0.146,-0.0232,0.0819,0.0123
ATTTAAC,0.0573,-0.0473,-0.464,-1.75,-0.05,-0.976,0.0795,-0.063,-0.0312,-0.124
CCCGAGC,0.15,0.0508,0.513,0.961,0.049,0.0829,0.176,0.324,-0.0108,0.115
TATGAAG,0.16,0.0464,-0.709,0.0146,0.246,-0.933,0.188,0.0892,0.16,0.0894
GGTAGAC,-0.00896,0.131,0.826,1.98,0.00841,2.17,0.205,0.00641,0.0367,0.145
CAGTACG,-0.0241,-0.108,-0.829,-0.207,-0.0497,-1.05,0.0484,-0.00346,0.0707,-0.0839
CGTACCC,-0.138,0.03,0.107,-0.585,-0.0691,-0.0492,-0.702,-0.107,-0.126,-0.0212
GAAATAA,0.0824,0.139,0.179,0.411,0.0784,0.702,0.118,0.123,0.112,0.128
ACACTTC,-0.0015,-0.0167,-0.22,-0.495,-0.0059,-0.966,0.127,0.0143,-0.053,-0.137
CTATCTA,-0.116,0.0929,-0.0878,-1.22,0.0201,-0.502,-0.151,0.00532,0.0842,0.117
GCAAAAT,-0.021,0.108,0.163,0.157,0.171,0.0716,0.102,0.143,0.0525,0.175
CTGAATC,0.141,0.0623,-0.00889,0.2,-0.0738,-0.321,0.148,-0.114,-0.0172,0.128
GGACCGG,-0.101,-0.00214,0.533,1.45,-0.0886,1.73,0.0456,0.117,0.0162,0.0551
CCGGGCA,0.08,-0.0564,0.466,0.729,-0.03,1.38,-0.074,0.0188,-0.116,-0.0222
TTGCGTC,-0.103,-0.135,-0.927,0.2,-0.0733,-0.714,0.0364,-0.252,-0.116,-0.168
GTGTGCT,-0.226,-0.145,0.0498,0.34,-0.203,0.376,-2.13,-0.0952,-0.0763,-0.209
CTCCGTC,-0.022,-0.0404,0.0928,0.0611,0.0118,0.26,0.0698,-0.00211,-0.108,-0.0897
TGATGAG,0.0571,-0.117,-0.555,-0.202,0.107,-0.963,0.0454,0.00816,0.105,-0.0314

Sequence,uncleaved DNA left (log2) [1],uncleaved DNA left (log2) [2],uncleaved DNA left (log2) [3],uncleaved DNA left (log2) [4],uncleaved DNA left (log2) [5],uncleaved DNA left (log2) [6],uncleaved DNA left (log2) [7],uncleaved DNA left (log2) [8],uncleaved DNA left (log2) [9],uncleaved DNA left (log2) [10]
TTCGACG,0.0169,-0.0631,-0.544,-0.513,-0.18,-0.99,-0.00595,-0.075,-0.209,-0.228
GTACACA,-0.00293,0.139,0.472,0.832,-0.00428,1.57,0.172,0.056,0.0903,0.295
GGGTTGT,0.103,0.0984,0.774,1.77,-0.0428,2.09,-0.0786,0.0313,0.0588,0.00449
GCGTTAT,-0.17,-0.255,-0.00768,-0.0363,-0.157,0.071,-1.83,-0.205,-0.2,-0.0631
TAATCAG,-0.00339,-0.0125,-1.33,-1.68,0.131,-1.32,0.188,0.0852,0.067,-0.0909
TTTTCGC,-0.0624,-0.0764,-0.521,-0.874,-0.065,-1.13,0.0539,-0.205,-0.0505,-0.205
AGGATTC,0.0344,0.044,0.145,0.517,-0.16,0.167,0.026,-0.0427,-0.0591,0.075
GAATGGT,-0.738,-0.0628,-2.81,-1.99,-0.0717,-1.44,-3.01,-1.87,0.0167,-2.21
GAGTCCA,0.0475,-0.00865,0.318,-0.709,-0.226,1.09,-2.39,0.0587,0.0991,-0.00198
CTTTAAG,-0.0236,-0.0871,-0.807,-0.372,-0.0659,-1.26,0.0182,-0.243,-0.00782,-0.21
TACTGGT,-2.79,-0.582,-1.23,-1.57,0.0387,0.889,-3.39,-0.0607,0.045,-0.151
ACCCTGG,0.16,0.0786,-0.53,-0.443,0.0898,-0.971,0.268,0.025,0.105,0.0363
CCCGGCG,-0.142,-0.0808,-0.614,0.361,0.0423,-0.418,0.2,-0.0564,0.027,-0.112
AGCTGGG,0.0826,0.0528,-0.368,-0.222,0.0358,-0.48,0.0922,0.0374,0.00172,-0.00652
AAAATAG,0.0777,-0.059,-0.712,-0.427,0.135,-1.23,0.185,0.0652,0.11,-0.0231
TAGTTTT,-3.61,-3.73,-3.23,-3.07,-3.65,-1.33,-4.45,-2.18,0.108,-2.34
CATTGAG,0.0475,0.106,0.178,1.59,0.223,1.41,0.263,0.048,0.274,0.128
TCCATGC,0.0379,-0.0866,-0.653,-0.544,0.0186,-1.18,0.0818,-0.0997,0.0253,-0.0235
TATAAAT,-0.0589,-0.383,-0.303,-1.77,0.0391,-0.124,-2.34,-0.0125,0.058,0.0308
CTCCCGC,-0.00783,0.0023,-0.388,-0.645,-0.0162,-0.662,0.157,-0.071,-0.00102,-0.0587

Sequence,uncleaved DNA left (log2) [1],uncleaved DNA left (log2) [2],uncleaved DNA left (log2) [3],uncleaved DNA left (log2) [4],uncleaved DNA left (log2) [5],uncleaved DNA left (log2) [6],uncleaved DNA left (log2) [7],uncleaved DNA left (log2) [8],uncleaved DNA left (log2) [9],uncleaved DNA left (log2) [10]
CACGTCA,0.0824,0.0991,-0.0938,-1.69,0.0591,-0.534,-0.0151,-0.059,0.0762,0.0385
ATAATCT,-0.0164,0.035,0.309,-2.44,0.0454,-0.63,-0.224,0.0447,0.0548,0.0344
ACGCCCG,0.14,0.104,-0.716,-0.405,0.0886,-0.862,0.175,0.114,0.108,-0.0575
TTCAGTT,0.0225,-0.0131,-0.115,-1.79,-0.0901,-0.365,-0.336,-0.0454,-0.00625,-0.193
CTGGGCC,-0.0132,-0.0993,0.103,0.467,-0.133,0.152,0.0966,-0.0403,-0.0327,-0.041
GAGGTGT,0.144,0.0366,0.389,0.629,0.131,1.14,-0.295,0.109,0.105,0.228
GCGTACA,-0.0479,-0.0344,0.232,0.00619,-0.0319,0.869,-0.116,-0.11,-0.0319,0.00692
TCTATTA,-0.0532,-0.0306,0.0709,-1.14,-0.0212,-0.48,-0.101,0.0968,-0.00097,0.0727
GAGGCCA,0.0819,0.17,0.654,1.16,0.0361,1.88,0.0677,0.104,0.078,0.14
GTACGGC,0.0486,0.00419,0.43,1,0.0481,1.46,0.0933,0.12,-0.0368,0.0714
TCACCCT,-0.207,-0.0625,-0.26,-2.34,-0.132,-0.485,-0.883,-0.149,-0.0742,-0.221
AGAATCT,0.111,0.066,0.246,-1,0.0454,0.272,-0.513,0.121,0.0525,0.122
TGGGTAC,0.102,0.156,0.761,1.66,0.0554,1.9,0.335,0.0655,0.105,0.124
GTACCCT,-0.137,-0.027,0.223,0.447,-0.11,1.62,-0.0306,-0.0486,-0.0612,0.0606
GGTGACG,0.0979,0.18,0.657,1.55,0.0944,1.95,0.112,0.119,-0.00901,0.127
GAGGACG,-0.0789,0.0109,0.328,1.06,-0.00899,0.617,0.126,0.0405,0.0741,0.0601
GCAGCTC,-0.0601,-0.162,-0.107,-0.0288,-0.115,-0.296,-0.00482,0.00261,-0.223,-0.119
CACATCA,0.0507,0.133,0.00574,-1.77,0.0459,-0.412,0.105,0.0388,0.122,0.0837
